Assay results as given in PubChem BioAssay AID1963576 (National Center for Advancing Translational Sciences (NCATS), 2024).
Hit rate of the full screen: of about 46,000 compounds, about 60 (0.1%) were called active. About 3% were inconclusive and are not listed. Calls come from the whole dose curve; as a rule, active = well fitted inhibition curve with a large enough effect; inconclusive = small, poorly fitted or top-dose-only effect; inactive = no such curve, though single readings can be large or run the other way. The list shows a part of the results.

test: Primary qHTS assay for Inhibitors of ovarian cancer metastasis using an organotypic tumor microenvironment (TME) model.; note: nearly all actives have a fitted effect of over 65% in size;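 for activity change, negative = inhibition: plate controls were DMSO wells for no effect and tomatine positive control wells for full effect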; details: SKOV3ip1-GFP adhesion/invasion on 3D omental model, fluorescence; series mostly up to 45.8 µM; activity change, negative = inhibition: at the top concentration
Outline: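 Adhesion/invasion was scored as fixed GFP-labeled SKOV3ip1 cell counts (488/509 nm), normalized to DMSO and tomatine controls. Cancer cells in serum-free medium, with four compound doses (0.36-46 umol/L), sat 2 hr at RT then 16 hr at 37 C on a 48 hr fibroblast/mesothelial/ECM culture.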

outcome, inactive:
CCC(=O)N1CCc2cc(S(=O)(=O)NCCC(=O)Nc3ccc(OC)c(Cl)c3)ccc21
Cc1nn(CCCC(=O)NCc2ccccc2)c(=O)c2nn(-c3ccccc3)c(C)c12
COC(=O)c1sc2cccc(F)c2c1S(=O)(=O)Nc1cc(OC)cc(OC)c1
Cc1c(C(=O)NCc2ccc(N(C)C)cc2)oc2c1-c1nn(Cc3cccc(Cl)c3)cc1CC2
COCCN1Cc2cccc(C(=O)Nc3ccc(C)cc3C)c2C1=O
COc1cccc(CNC(=O)c2cnc(N3CCCC3)nc2C)c1
CC(C)Oc1ccc(CNS(=O)(=O)c2cnc(N)nc2)cc1
CCOc1ccc(CCNC(=O)Cn2nnc(-c3ccc(OC)c(OC)c3)n2)cc1OCC
O=C(CN1C(=O)C2(SCC(=O)N2c2ccccc2)c2ccccc21)NCc1ccccc1Cl (configuration not stated)
CCOc1ccccc1NC(=O)CSc1nccn1-c1ccc(Cl)cc1
CC(CNC(=O)C1CCN(Cc2cc3ccccc3n2Cc2ccccc2)CC1)c1ccccc1 (configuration not stated)
COc1ccc(NS(=O)(=O)c2ccc(NS(=O)(=O)c3ccc4c(c3)OCCO4)cc2)cc1
COc1ccc(NC(=O)N2CCN(c3cc(-c4noc(C)n4)ccc3C)CC2)c(OC)c1
COc1ccc(N2CCN(C(=O)CCn3cnc4onc(-c5ccc(F)cc5)c4c3=O)CC2)cc1
Cc1cccc(-c2nc3nc(C)cc(N4CCN(c5ccccc5)CC4)n3n2)c1
CCOC(=O)Cc1ccc(NC(=O)N2CC(CC)Oc3ccccc32)cc1 (configuration not stated)

Activity change, negative = inhibition, inactive:
O=C(CSc1nc2ccccc2c(=O)n1CCC(=O)NC1CCCCC1)Nc1ccccc1Cl 1.97%
O=C(COc1ccccc1)Nc1ccc(S(=O)(=O)N(Cc2ccccc2)c2ccccc2)cc1 -10.7%
Cc1cc2c(cc1S(=O)(=O)N1CCC(C)CC1)OCC(=O)N2 2.01%
Cc1c(Cl)cccc1NC(=O)c1cnc2sc(N3CCCC3)nn2c1=O -5.65%
Cc1ccc(NC(=O)Cn2c(=O)n(CCCCCC(=O)NCc3ccc(F)cc3)c(=O)c3sccc32)c(C)c1 0.309%
CCN(C(=O)C1CCN(S(=O)(=O)c2ccc3c(c2)CCCN3C(=O)C2CCC2)CC1)c1cccc(C)c1 -6.04%
COC(=O)CNC(=O)C(Cc1ccccc1)NS(=O)(=O)c1ccc2c(c1)c(=O)n(C)c(=O)n2C (configuration not stated) -3.56%
COc1ccc(S(=O)(=O)c2cn(C)c3cc(N4CCCC4)c(F)cc3c2=O)cc1 9.35%
Cc1ccc(CNC(=O)c2ccc3c(c2)N(Cc2ccccc2F)C(=O)c2ccccc2S3(=O)=O)cc1 -6.36%
O=S(=O)(c1ccc2ccccc2c1)n1nc(-c2ccco2)nc1NCc1cccc(Cl)c1 -6.18%
CCCC12CN3CC(CCC)(CN(C1)C3c1c[nH]c3ccccc13)C2=O (configuration not stated) -4.59%
Cc1ccc(-c2nnc(SCC(=O)N3CCc4ccccc43)o2)cc1 3.63%
COc1ccc(-c2nc(-c3ccccc3)c(-c3ccccc3)[nH]2)cc1Br 1.24%
CCOc1cc(CNCCSc2nnnn2-c2ccccc2)cc(Cl)c1OC -8.54%
CCCCNc1nc(Oc2ccc(=O)n(C)n2)nc(N(C)C)n1 6.73%
CCCc1nn2c(=O)cc(COC(=O)c3ccc(NC(=O)C(C)Oc4ccccc4)cc3)nc2s1 (configuration not stated) 2.84%
CSc1nc(-c2ccc(F)cc2)nc2c1Cc1c(CO)cnc(C)c1O2 0.89%
O=C(NC1CCCCC1)c1ccc2c(c1)N(Cc1ccccc1)C(=O)c1ccccc1S2 3.78%
Cc1ccc2nc(-c3ccc(NC(=O)COc4c(C)ccc(C)c4C)cc3)sc2c1 1.39%
CC(C)(C#N)c1cc(Cn2cncn2)cc(C(C)(C)C#N)c1 17.6%
O=C(CSc1cn(CC(=O)N2CCCCC2)c2ccccc12)Nc1ccccc1F -4.53%
COc1ccccc1-c1noc(CSc2nc3ccc(C)cc3[nH]2)n1 -11.9%
COc1cc2nccc(Oc3ccc(NC(=O)Nc4cc(C)on4)c(Cl)c3)c2cc1OC 4.65%
COc1ccc(C(=O)c2cn(Cc3ccc(C)cc3)c3cc4c(cc3c2=O)OCO4)cc1 -44.4%
CCc1ccc(-c2cc3c(N4CCN(c5ccccc5)CC4)nccn3n2)cc1 -19.1%
COc1cccc(C(=O)n2nc(-c3ccco3)nc2NCc2cccs2)c1 5.02%
Cc1cccc(CN2C(=O)c3ccccc3S(=O)(=O)c3ccc(C(=O)N4CCN(c5cc(C)ccc5C)CC4)cc32)c1 4.95%
COc1ccc(Br)cc1CNC(=O)c1ccc2c(c1)nc1n2CCCCC1 -4.3%
Cc1cc(C)cc(N2CCn3c2nc2c3c(=O)n(CCc3ccccc3)c(=O)n2C)c1 -4.53%
COc1ccc(N(CC(=O)NCc2ccc(C)cc2)S(=O)(=O)c2c(C)[nH]c(=O)[nH]c2=O)cc1 -8.02%
Cc1c(C(=O)NCc2ccccc2Cl)sc2nc3n(c(=O)c12)CCC3 -9.44%
COc1cccc(N2CCN(Cc3nnc(-c4ccc5c(c4)OCO5)o3)CC2)c1 -5.24%
CC(C)(C)C1CCc2c(sc(NC(=O)c3ccncc3)c2C(=O)Nc2ccccc2Cl)C1 (configuration not stated) 7.81%
Cc1ccc(-c2nc3c4ccccc4n(Cc4cccc(Cl)c4)c(=O)n3n2)cc1 16.5%
COc1ccc(OC)c(CNC(=O)C2COc3ccccc3C2)c1 (configuration not stated) 3.4%
COc1ccc2nc(N3CCN(C(=O)c4ccco4)CC3)sc2c1 -6.95%
CCc1ccc(S(=O)(=O)c2nnn3c2nc(N2CCCC(C)C2)c2cc(Cl)ccc23)cc1 (configuration not stated) -22.5%
CCN1CCN(CCCNC(=O)Cn2nc(C)n3c(cc4cc(C)ccc43)c2=O)CC1 6.63%
Clc1ccc(CSc2nc3ncccc3[nH]2)cc1 3.23%
CCCc1ccc(NC(=O)C2CCN(c3cnccn3)CC2)cc1 -1.42%
Cc1ccc(NC(=O)Cc2ccc(NC(=O)N3CCCCc4ccccc43)cc2)cc1 38.2%
COc1cccc(Cn2cc(S(=O)(=O)c3ccc(C)cc3)c(=O)c3cc4c(cc32)OCO4)c1 -13.8%
Cc1ccc(NC(=O)CSc2[nH]c(=O)ncc2C)cc1 -0.266%
COc1ccc(NC(=O)c2ccco2)cc1NC(=O)COc1ccc(C)cc1C -6.36%
O=C(Nc1nonc1-c1ccc(Br)cc1)c1ccco1 -1.2%
Cc1nc2ccccc2n1CCc1nc2c3ccccc3nc(SCC(=O)Nc3ccc(C(C)C)cc3)n2n1 -1.84%
